The chains are these.
T1: UNK ZnF1-3 (human, UniProt Q9C0B0 31-174)
T1 sequence: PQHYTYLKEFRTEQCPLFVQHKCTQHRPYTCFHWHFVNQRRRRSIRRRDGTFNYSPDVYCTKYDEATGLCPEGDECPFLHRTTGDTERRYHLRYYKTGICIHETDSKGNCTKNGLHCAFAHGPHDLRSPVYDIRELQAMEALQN

B1: chr17:62495991:62495992:-_ENSG00000108654_ENST00000581693|hu_mus|FALSE|FALSE (ssRNA)
RNA: GGGAGUUCUACAGUCCGACGAUCCACCAUAAUUACUGCUGCACUGCAGUCAUUUCUGCAUUUCCCAUGUUUCUUAAAUAACUAUCUUGUCUGAUAACACACAAUAUAAAGAGCAAUUAUGAAAAACAGACAUUUACAUAUACUCAACAGAGGAUUGAGCAUCA
B2: chr17:64801638:64801639:+_ENSG00000154229_ENST00000413366|hu_mus|hu_hu_hu_mus_False|8_108 (ssRNA)
RNA: GGGAGUUCUACAGUCCGACGAUCUAUAAAUACAUAUACAUAUGUACACAUAUAUAGUAAAACCCUAGUUAAACGUGUAAAGUAGCCAUUCAUUUUUAAAAUUACAUCUACAUUAAAAAAUUAAUAUAUCUGAUACAGUGCCAGCAACAGAGGAUUGAGCAUCA
B3: chr2:181286759:181286760:+_ENSMUSG00000000826_ENSMUST00000072334|mus_mus|FALSE|FALSE (ssRNA)
RNA: GGGAGUUCUACAGUCCGACGAUCGUGUUAACUGAACAUUAGAAGGGUAGGAAAGGUCAUAAACAUUGCACAGAAUCAUCUAAAGUAAUCUUAAAAUACAGUCAAAAGGAAGACAAGGAAAGACAUCACUGGGCACAAACAGAACAACAGAGGAUUGAGCAUCA
B4: 31360173_31360293_6090_CDS_ENSMUSG00000006307_ENSMUST00000006470|mouse|control|control (ssRNA)
RNA: GGGAGUUCUACAGUCCGACGAUCAGGGCCAGACACCACGGUCACAGGGAAGUGGACAUAGUGAGUGGUAGGGCUGGCCUCCUCCUCUGAGCUGUCCCCUGGACCUCCCUGGCUGCUCCCCACUGCCCCAGCAGCCACAAUCUCCAACAGAGGAUUGAGCAUCA
B5: 49334798_49334918_355_3pUTR_ENSG00000134287_ENST00000256682|human|control|control (ssRNA)
RNA: GGGAGUUCUACAGUCCGACGAUCGCAUCCAGGCCCACCAUCAGGAUGCGCAUCUCCUUCUUCCCAAUCAGGCUCUUGAGAAGGUUUCCAAAGAUAUUGCCCAUGAUCACAGCAGCUGCUUUCUGGGGACAGUGGGGCCCAAGUCAACAGAGGAUUGAGCAUCA
B6: chr2:217001844:217001845:+_ENSG00000079246_ENST00000392132|hu_hu|hu_hu_hu_mus_False|1_18 (ssRNA)
RNA: GGGAGUUCUACAGUCCGACGAUCACCAACUUGAGGAUUAGAUCUUUUGUCAUAAGCAUAUCGGACGAUGGCGACCAUGUUUAACUCAUCCAAAGCAUGAACGAGAGAGGAAAGGGCAACUGCAGCUGCCUCAUCAUCUCUUGCCAACAGAGGAUUGAGCAUCA
B7: chr17:80560191:80560192:+_ENSG00000141568_ENST00000335255|hu_mus|FALSE|FALSE (ssRNA)
RNA: GGGAGUUCUACAGUCCGACGAUCUUUACUAGAGUGGGAAAUUACGCCAAGGACAAAGUCUACAUAAAGAAACAAACAACAAACCCAGCAAGCUAGAGCAGGUACGUGCGUGCAGCCUGACGGCUGGAAGGCUCCCAGGGUCUCCAACAGAGGAUUGAGCAUCA
B8: chr14:92628060:92628061:+_ENSG00000165934_ENST00000298875|hu_mus|motif|central (ssRNA)
RNA: GGGAGUUCUACAGUCCGACGAUCUUGACAUCAUGUCCUUUACACAAUGGCAUACUGUUCAUAUAAAAGGUCUCGUAUCCGGUAAAAGUCUUGACAAAGGCAGCCUUCUAAUCCGAUGCGUCCAGUUUCUGUUCUGCGAACUGCCAACAGAGGAUUGAGCAUCA
B9: chr2:42509997:42509998:+_ENSG00000143924_ENST00000318522|hu_mus|hu_hu_hu_mus_True|48_58 (ssRNA)
RNA: GGGAGUUCUACAGUCCGACGAUCUCGCUGAGUCCUCUCCUCAUAAUUAAACAGGACUACCACUGAGGCGAUAAAAUAAACUAUUUUCCCGGUCGGAAGCAGGUAUACAUUCGCUCUACAGUCCUUUCCUCGAUAACCGUAUACCAACAGAGGAUUGAGCAUCA
B10: chr17:57816259:57816260:+_ENSG00000062716_ENST00000262291|hu_hu|motif|central (ssRNA)
RNA: GGGAGUUCUACAGUCCGACGAUCCAGAUAAAGCAGAAAGGUGUGCAGCCCUGUUCCAAGCCCAACAGAAGACAAAAUUCCGGAGCCGGUCCAGUAGGCAUACAAAAGAAACUGUUUCUCUAUACGUUGCACAUACUGUUGAUGCAACAGAGGAUUGAGCAUCA
B11: chr1:39494564:39494565:+_ENSG00000168653_ENST00000372967|hu_hu|hu_hu_hu_mus_True|88_108 (ssRNA)
RNA: GGGAGUUCUACAGUCCGACGAUCAUGUGCACGUCUCAUCGUUUUGUGCCGAAGCAAGCACUCUUCGAAGUCAUCGAACUCUAUCUUGCACUCCUUUUUCGCCCGGGUCCCACCGAUCCCGUGUGCACACUCUAUCCACUCUUUCAACAGAGGAUUGAGCAUCA
B12: chr13:46067487:46067488:+_ENSG00000136152_ENST00000349995|hu_hu|motif|central (ssRNA)
RNA: GGGAGUUCUACAGUCCGACGAUCGAUCAAUGGCCUGAAGACAUCAUACAAUGACACACACAGUUUCUCCAAAAGCUCAUCGGAUUUUGAUGUUGGUUUUGUGAAAAAUUCAUUGUAAAGUUGGUGUUCAUCCUGGCAGACAUGCAACAGAGGAUUGAGCAUCA
B13: chr5:37294552:37294553:-_ENSG00000113569_ENST00000381843|hu_mus|FALSE|FALSE (ssRNA)
RNA: GGGAGUUCUACAGUCCGACGAUCAUUCAUGGUCUGUAUCACAAACCCCACAUCCCAGUUUAAGGUACAAACUUGCUGCUCCAAGAACUGCACGAUAAAAUCCAGAGGGAAAAACCGAGGCGUCCCAGCAUAGAUUUUGCCGAGCAACAGAGGAUUGAGCAUCA
B14: chr11:100882373:100882374:+_ENSMUSG00000019302_ENSMUST00000044721|mus_mus|mus_mus_mus_hu_True|48_48 (ssRNA)
RNA: GGGAGUUCUACAGUCCGACGAUCUUCCUGGUUUGUGUUGAUUUCCUUCAGUUCAUUUUCAAUCUUCUCAAAAUUGGCCUCUAAGUCGAUCAUGUCCCGGGGGAAGGGAACCUCUGGGUUUUCACCGGUGUCCAUAAUCGGAAUCAACAGAGGAUUGAGCAUCA
B15: chr16:1859243:1859244:-_ENSG00000063854_ENST00000397353|hu_hu|FALSE|FALSE (ssRNA)
RNA: GGGAGUUCUACAGUCCGACGAUCAUCAAGACUGAAUUUCCCGCACGGACCAGCAGGAAAGCCAGUUACCUAAAAGAGCCUAAUCCCCAAAUCCGCUGAAGGUGCAGGGCGGCCUCAGUCCCGGGGCAUCUUGAACUGGUCCUUCAACAGAGGAUUGAGCAUCA
B16: 27242051_27281840_773_CDS_ENSMUSG00000009621_ENSMUST00000056176|mouse|control|control (ssRNA)
RNA: GGGAGUUCUACAGUCCGACGAUCCAGCUCACUGUUUCUUAGUCCAAAUUUGUCAUGGCAGACUUUGAGGAAGGUGCGAAUAUUCUUCAGACACAAGAACUGGGACAUCUGCGGCCGGAAGUUGAUGUCCUUAAGGUCGAUGGACAACAGAGGAUUGAGCAUCA
B17: 124712484_124713586_393_CDS_ENSG00000119965_ENST00000481909|human|control|control (ssRNA)
RNA: GGGAGUUCUACAGUCCGACGAUCGUAAAGGAAGCAGGGGUUUUCAUCUUUGUUGUUGUGGUUUCUCUUCAAAAUCACCAGAUCCUGACCUGGAGCAGGCGGUGCCAGCAGCUCCUCCCAGUCGAAGUCACCGGGGCCGAGACCCAACAGAGGAUUGAGCAUCA
B18: chr2:26769575:26769576:-_ENSMUSG00000015790_ENSMUST00000167661|mus_hu|FALSE|FALSE (ssRNA)
RNA: GGGAGUUCUACAGUCCGACGAUCUGGAUUGUUCUCAGGGACAAAAGGCUGCCUGGUUUCUGUCAGCCUCACCAUCCCAAUGAGGUCCACUUCUCCCUCAAUCUGGCCUUUCUGCCGGGUUUCAGGAUUCACUUUCUUCCUGGGCAACAGAGGAUUGAGCAUCA
B19: chr4:153332861:153332862:-_ENSG00000109670_ENST00000281708|hu_hu|FALSE|FALSE (ssRNA)
RNA: GGGAGUUCUACAGUCCGACGAUCCUCCUCUUGUUGUCUGAGUUGCUGUUGCUGUUCCUCCUCUACCACACGAUUCAUCUGUUCUUCAUCUACCUGGCUUGAGGAAGGGUUACCUCUCAGAGAGCCUCCAGUUCGUCGUCUUUUCAACAGAGGAUUGAGCAUCA
B20: chr14:66974463:66974464:+_ENSMUSG00000022044_ENSMUST00000074523|mus_hu|mus_mus_mus_hu_False|1_108 (ssRNA)
RNA: GGGAGUUCUACAGUCCGACGAUCUUGUAGGAUGAUUUAUUCAGGGGAUCGGCCAGGAAGCAGGAGCAGAACAAGGACACCAGCGGGAGCUCCUUCAUCUUCUCUUUGUAGGCAGCAAGGGUCAUGUUUCUGGGAUCCUGGUGGCAACAGAGGAUUGAGCAUCA
B21: chr14:66974463:66974464:+_ENSMUSG00000022044_ENSMUST00000074523|mus_hu|mus_mus_mus_hu_False|8_28 (ssRNA)
RNA: GGGAGUUCUACAGUCCGACGAUCUUGUAGGACGACUUAUUCAGGGGAUCGGCCAGGAAGCAGGAGCAGAACAAGGACACCAGCGGGAGCUCCUUCAUCUUCUCUUUAUAGGCUGCAAGGGUCAUGUUGGCUGGAAUUGGUGGCCAACAGAGGAUUGAGCAUCA
B22: chr9:95013113:95013114:-_ENSG00000196305_ENST00000443024|hu_hu|hu_hu_hu_mus_False|58_88 (ssRNA)
RNA: GGGAGUUCUACAGUCCGACGAUCCUCAGUCAGAAAGGGCGUGUAAGGAGCCAUAAGUCUGCACAGAGAAAGCAGGACACUAAACAAUGUCUCCAGAGCCAUGACACAGUCUUCCACCCCACUCUCACCCUUUAACCUCCUCCUCAACAGAGGAUUGAGCAUCA

This is one part of the list.

The assay addresses T1, UNK ZnF1-3. Put plainly: nsRBNS (natural sequence RNA bind-n-seq); RBNS binding buffer (assumed for nsRBNS): 25 mM Tris pH 7.5, 150 mM KCl, 3 mM MgCl2, 0.01% Triton X-100, 500 ug/ml BSA, 20 U/ml SUPERase-In, 4 C; UNK is unkempt and MSI1 is Musashi-1; names of the RNAs are library labels; protein concentration not given here; high values mean tight binding.
B1: the binding signal worked out at 1.14 enrichment R. The figure for B2 is 1.7 enrichment R. Regarding B3, the binding signal amounted to 2.41 enrichment R. In the case of B4, the binding signal was 0.861 enrichment R. In turn, B5 had a binding signal of 1.7 enrichment R. As for B6, the figure is 1.09 enrichment R; as for B7, 1.16 enrichment R. Consider B8, for which the binding signal came out at 0.754 enrichment R. B9 had a binding signal of 1.29 enrichment R.

Consider B10, for which the binding signal is 1.24 enrichment R.

For the molecule B11, the binding signal stood at 0.59 enrichment R. In turn, B12 came in with a binding signal of 1.33 enrichment R.

As for B13, the binding signal is 0.977 enrichment R. B14: the binding signal came to 0.556 enrichment R. B15 displayed a binding signal of 0.999 enrichment R. The figure for B16 is 1.21 enrichment R.

B17 had a binding signal of 0.739 enrichment R. B18 gave a binding signal of 0.378 enrichment R. In turn, B19 showed a binding signal of 0.378 enrichment R.

As to B20, the binding signal worked out at 1.79 enrichment R. Turning to B21, the binding signal is 2.11 enrichment R. As for B22, the binding signal is 1.72 enrichment R.

The values are drawn from paper PMC12136788.
